Results published in PubChem BioAssay AID1466 (National Center for Advancing Translational Sciences (NCATS), 2008).
In all, about 200,000 compounds went through this assay and about 10 (0.005%) were called active. The call rests on the fitted dose curve; in most records, active means well fitted inhibition curve with a large enough effect; inconclusive means small, poorly fitted or top-dose-only effect, or effect the other way, or another doubt; inactive means no such curve, though single readings can be large or run the other way. The inconclusive results got no clear call from the source. Where the call is inconclusive, the potency comes from a doubtful curve fit.

molecular target: Lysosomal alpha-glucosidase (Homo sapiens) (UniProt P10253); assay: qHTS Assay for Inhibitors of Human alpha-Glucosidase as a Potential Chaperone Treatment of Pompe Disease; settings: purified human GAA, 4-MU-alpha-glucoside fluorescence; activity change, negative = inhibition: at 76.9 µM (top of the series) unless noted;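 on activity change, negative = inhibition: plate controls were uninhibited enzyme wells for no effect and no-enzyme background for full effect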
Summary of the method: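 Human enzyme at 4 nM with 400 uM 4-methylumbelliferyl-alpha-D-pyranoside, citrate/phosphate buffer pH 5.0, 0.005% Tween-20, 20 min at room temperature. Compounds up to 77 uM. 4-MU fluorescence (Ex 365/Em 440) read after NaOH/glycine stop; AC50 from Hill fit.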
Potency means the concentration at half of the fitted maximal effect; tags describe the fitted curve by direction and shape.

Potency, inconclusive:
CCC(=O)Nc1cc(C(=O)OCC(=O)c2ccccc2)ccc1C 6.31 µM [inhibitor, single point]
COc1ccc(NC(=O)Nc2cc(C)ccc2OC)cc1 35.5 µM [inhibitor, single point]
Cc1nc(SCC(=O)OCc2ccccc2)c(C#N)c(-c2ccccc2)c1C(=O)Nc1ccccc1 17.8 µM [inhibitor, partial curve]
CC(OC(=O)c1snc(C(=O)NC2CCCCC2)c1N)C(=O)NC(C)(C)C (configuration not stated) 22.4 µM [activator, partial curve]
CCOC(=O)C1=C(C)C(c2ccc(OC)cc2)NC(=O)N1 (configuration not stated) 1.41 µM [inhibitor, partial curve]
CCOP(=O)(c1ccccc1)C(O)c1ccc(Br)cc1 (configuration not stated) 50.1 µM [inhibitor, single point]
Cc1ccc(S(=O)(=O)Nc2ccc(-c3nc4cc(NS(=O)(=O)c5ccc(C)cc5)ccc4o3)cc2)cc1 25.1 µM [activator, partial curve]
CCc1cccc(NC(=O)Cc2cn(C)c3ccccc23)c1 7.94 µM [inhibitor, single point]
O=C(Nc1cccc(Cl)c1)c1csc(-c2ccccc2)n1 22.4 µM [inhibitor, partial curve, poor fit]
CC1=C(C(=O)OC(C)C)C(c2ccc(F)cc2)NC(=O)N1 (configuration not stated) 0.891 µM [inhibitor, full curve, poor fit]
COc1ccc2c(c1)c1nnc(SCC(=O)N3C(C)CCCC3C)nc1n2C (configuration not stated) 5.01 µM [inhibitor, full curve]
CCc1ccccc1N(CC)C(=O)CCc1nc(-c2ccc(C)cc2)no1 50.1 µM [inhibitor, single point]
Cc1ccc2cc(C#N)c(NCc3ccco3)nc2c1 2 µM [inhibitor, full curve]
CCN(CC(=O)Nc1cc(Cl)ccc1C)c1ncnc2sc(C)c(C)c12 44.7 µM [inhibitor, single point]

Activity change, negative = inhibition, inconclusive:
CC(=O)Nc1ccccc1NC(=O)c1cc(C)ccc1C 17.8% [activator]
Cn1c(SCC(=O)NCc2cccs2)nnc1-c1ccc(S(=O)(=O)N2CCCC2)cc1 -20.1% [inhibitor]
Cc1ccnc(NC(=O)CCC(=O)N(CC(=O)NC2CCCCC2)Cc2ccccc2)c1 15.6% [activator]
